Reference: the supplement of paper PMC11417369
Some of the results follow.

tested on: PfHDP1 homeodomain (GST-tagged); assay: gcPBM binding intensity (ln(normalized median fluorescence intensity)); higher = stronger DNA binding
Outline: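 DNA-binding domains from P. falciparum, fused to GST and produced in E. coli, were put on an Agilent 4 × 180k double-stranded probe array for 1 h in 1× PBS holding 1% milk, 0.2 mg/ml BSA, 0.5% salmon testes DNA and 0.03% Triton X-100. Probes were primer-extended, 36 bp long and drawn from intergenic genomic regions, with negative controls included. After Alexa488 anti-GST antibody detection and a 488 nm scan, binding intensity was set as the highest Masliner-normalised natural-log median intensity across replicate spots of either probe orientation.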

Sequence	gcPBM binding intensity (ln)
ATATTTTCTAATCAATGTACTTATTCTACACATTAA [XGTACX_site5774]	6.95
ACTACATAAAATGACACACACAAACTTTAAAATTTA [CACACA_site3474]	6.42
CACCTGCACGATTGCACACAAATATGTTTTGAAGAT [CACACA_site2103]	10.2
ATATTTTATGTAAAGGTGCAAAACAACATTAAAAAA	9.97
ATATGACTTAAATATGTGCGCATTTTTTTTTTTTTT	7.36
AGGATATATAATTAAGTGCATTAATTCAAAATAAAA [GTGCAC_site9702]	9.67
CATATATAAATCATGTGTACGTATTGAGTATCTACT [XGTACX_site6278]	6.56
ATAAGATATGTATATACACACATTTATTTACCTATA [CACACA_site7521]	6.67
TTATTATTTTATAACACACACATATATATTATATCT [CACACA_site1434]	6.8
CTTTAAACCCTGAACACACACAAATACAGACAAAAA [CACACA_site247]	6.99
AATATTGTATATAATAAACACACAATATTAAAAATA [CACACA_site8262]	6.45
GTATTTTAATATAAATGTACATAAATGTTATATATA [XGTACX_site3475]	6.4
TACACAAGAAAATTCACACACACACGGATATTTATA [CACACA_site7765]	6.69
GTATCGAAGTAAATACGTACTTAAATATGTTTAAAA [XGTACX_site1353]	6.14
ACGTACTGCCCTAAAGTGCATATATAATATAAACGA [GTGCAC_site9911]	8.07
TTTTATTTGACAAGCACACACTTAAATATATTTATA [CACACA_site7557]	6.88
ACATAAGAAGTTATATGTACATATATTTTTTAAATT [XGTACX_site8078]	6.33
AAAACATTTTCAAACTGTACACATAGAACTATGCAT [XGTACX_site4087]	6.46
CATTAATAACAAAGTTGTACAAGATAATATTATATG [XGTACX_site6832]	7.42

Sequence	gcPBM binding intensity (ln)
ATCTAGCCATTTTTTAGTACACATAAATAAAAAAAA [XGTACX_site1257]	6.4
TAAACAAAATATATATGTACATATATATATATATAT [XGTACX_site6502]	9.28
AAATTCTTAACCCAACGTACATATAATAAATTCTTA [XGTACX_site8538]	6.12
TAAACCAAACAATTATGTATAAGATGTATATATATA [GTGCAC_negctrl_site438]	8.04
AAAAAAAAAAATATATTATTTTACTTGTTTATTTTA [CACACA_negctrl_site1447]	5.8
AAAAAGAAGAATATATGTACACAAAATTTATGAGTT [XGTACX_site8609]	6.45
CATTATAAGAAACACACACACATATATATATATATA [CACACA_site1051]	9.43
TTTTTTTTTTCTTAGGTGCAAAAAATAAGTATATAT [GTGCAC_site9394]	9.72
AAAAAAAAAAGAACCCGTACATAAATAATATATATA [XGTACX_site164]	6.87
TATAGTTATATTAGAAGTACTTCATTTTAACATATT [XGTACX_site7101]	6.08
GAAACATAAAAATATATTGAAATAGTATCATGGGTA [CACACA_negctrl_site352]	6.54
AAAAAAAAAAAAGAAACACACACATTTGTATATAAT [CACACA_site8648]	6.64
TAAAAAATAAAATAATGTACATATGAATTATATATT [XGTACX_site8398]	6.44
TTTTTTTTGTATTAATGTACATATAACTTTTTTTTT [XGTACX_site7903]	6.29
TTAATTACATGTTATTGTACGTATTTTCTATCTATC [XGTACX_site844]	6.45
GGTAGGTGGATATATACACACATATATTATAGATAT [CACACA_site7021]	7.09
ATCGAGAAAAATAAAATAATACAATTTCTTTAAATA [XGTACX_negctrl_site162]	5.88
CACAGATATATACATACACACATATATACACATATA [CACACA_site6323]	6.94
ATTCCCTTAAGAAACTGTACAAAACTTTCTTCGATT [XGTACX_site775]	6.51

Sequence	gcPBM binding intensity (ln)
GTGTGTGTATATATTTGTACATATATTTAAACATAT [XGTACX_site1074]	7.66
TATACATAAATTATATGTACTGAAAATACATAATTA [XGTACX_site3626]	5.98
GTTTTAAAATTAAATATTATGGCATAATTCAAGAAA [GTGCAC_negctrl_site721]	6.42
AAAATTTTTTAACACTGTACTTGTAATATTAAAACT [XGTACX_site8369]	7.02
AAATGCGCCATGTGTACACATATATATATATATATA [CACACA_site4649]	9.4
TTAAATAAGTTCTTCACACATATATATATATATATA [CACACA_site4742]	9.41
TACATATATAAAAATTGTACACTTCATAAGAAAAAA [XGTACX_site4347]	7.56
CATACAGACGAACACACACACATATAAATATAAATA [CACACA_site6443]	6.86
TATTATTTTTTTTTTTGTACATATATGTATATATAT [XGTACX_site8471]	6.44
TATAATAAAATTGGTAGTACATTAATTTATGTATAG [XGTACX_site3059]	6.23
AACCACATGGTGTAATGTACATTACCTTAACAATAA [XGTACX_site3055]	6.77
AAATATTATATATATACACACACACCGGCATGCACA [CACACA_site7916]	7.56
AAGGATTACAAAAAAAGTACAAATGGATTTTTTCCC [XGTACX_site8905]	6.22
AAAAAAATTCTTGGCGCACACACTTTAAAAATTAAA [CACACA_site597]	6.5
CTTACAAATAAACAACGTACTTATTCGAATTATGCT [XGTACX_site2431]	6.41
GCATAAAATATGATCGCACACTGTTTAAAATACTTA [CACACA_site828]	6.46
ATATTACTAATTAATGGTACACGTTATAATAAACTA [XGTACX_site7051]	6.45
AGGTAGTTCTGTATCACACACATATAAATATAAATA [CACACA_site7110]	6.77
AAAATATATACAAGCAAACACACGTAATATATATTA [CACACA_site2152]	6.66
